# PMC9501325
# Chains of the proteins cited; added tags and fusions are not shown. Lines headed by an entry give the natural chain unless they say otherwise; changes in a name come on top. A line that says so, or that is headed by a name, gives the form on record, which may keep a tag or linker. Residues count along the entry.
# UniProt P09874: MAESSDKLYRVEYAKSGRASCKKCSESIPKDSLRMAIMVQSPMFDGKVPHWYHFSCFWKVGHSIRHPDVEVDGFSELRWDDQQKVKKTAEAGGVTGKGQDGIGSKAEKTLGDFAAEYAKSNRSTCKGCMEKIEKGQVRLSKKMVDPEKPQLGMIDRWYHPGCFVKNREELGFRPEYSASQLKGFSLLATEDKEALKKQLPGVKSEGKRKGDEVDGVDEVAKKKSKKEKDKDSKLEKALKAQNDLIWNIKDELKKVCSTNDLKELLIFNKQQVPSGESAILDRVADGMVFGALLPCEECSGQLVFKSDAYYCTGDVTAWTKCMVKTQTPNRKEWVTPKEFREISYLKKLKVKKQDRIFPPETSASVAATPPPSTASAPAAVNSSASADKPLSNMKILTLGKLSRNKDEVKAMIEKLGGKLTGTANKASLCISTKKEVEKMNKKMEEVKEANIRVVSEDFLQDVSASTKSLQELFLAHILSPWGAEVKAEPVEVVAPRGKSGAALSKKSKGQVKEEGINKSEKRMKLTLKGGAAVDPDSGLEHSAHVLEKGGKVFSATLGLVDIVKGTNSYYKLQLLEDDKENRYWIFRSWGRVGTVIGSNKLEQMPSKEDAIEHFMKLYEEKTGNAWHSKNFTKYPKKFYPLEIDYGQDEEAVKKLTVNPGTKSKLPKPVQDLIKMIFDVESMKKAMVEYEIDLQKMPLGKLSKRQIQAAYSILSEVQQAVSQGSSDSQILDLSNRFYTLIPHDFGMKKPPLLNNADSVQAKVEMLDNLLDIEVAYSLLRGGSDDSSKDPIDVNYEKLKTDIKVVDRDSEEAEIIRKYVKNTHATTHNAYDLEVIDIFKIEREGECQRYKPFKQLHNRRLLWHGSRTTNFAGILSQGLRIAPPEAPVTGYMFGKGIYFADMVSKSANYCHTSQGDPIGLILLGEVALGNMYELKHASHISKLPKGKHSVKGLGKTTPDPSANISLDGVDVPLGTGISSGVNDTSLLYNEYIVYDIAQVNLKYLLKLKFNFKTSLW
# SFB-tagged PARP-1 auto-modification domain (M): residues 216-488 of P09874
# GFP-tagged PARP-1 DB (BRCT domain deletion mutant) (P09874, form named): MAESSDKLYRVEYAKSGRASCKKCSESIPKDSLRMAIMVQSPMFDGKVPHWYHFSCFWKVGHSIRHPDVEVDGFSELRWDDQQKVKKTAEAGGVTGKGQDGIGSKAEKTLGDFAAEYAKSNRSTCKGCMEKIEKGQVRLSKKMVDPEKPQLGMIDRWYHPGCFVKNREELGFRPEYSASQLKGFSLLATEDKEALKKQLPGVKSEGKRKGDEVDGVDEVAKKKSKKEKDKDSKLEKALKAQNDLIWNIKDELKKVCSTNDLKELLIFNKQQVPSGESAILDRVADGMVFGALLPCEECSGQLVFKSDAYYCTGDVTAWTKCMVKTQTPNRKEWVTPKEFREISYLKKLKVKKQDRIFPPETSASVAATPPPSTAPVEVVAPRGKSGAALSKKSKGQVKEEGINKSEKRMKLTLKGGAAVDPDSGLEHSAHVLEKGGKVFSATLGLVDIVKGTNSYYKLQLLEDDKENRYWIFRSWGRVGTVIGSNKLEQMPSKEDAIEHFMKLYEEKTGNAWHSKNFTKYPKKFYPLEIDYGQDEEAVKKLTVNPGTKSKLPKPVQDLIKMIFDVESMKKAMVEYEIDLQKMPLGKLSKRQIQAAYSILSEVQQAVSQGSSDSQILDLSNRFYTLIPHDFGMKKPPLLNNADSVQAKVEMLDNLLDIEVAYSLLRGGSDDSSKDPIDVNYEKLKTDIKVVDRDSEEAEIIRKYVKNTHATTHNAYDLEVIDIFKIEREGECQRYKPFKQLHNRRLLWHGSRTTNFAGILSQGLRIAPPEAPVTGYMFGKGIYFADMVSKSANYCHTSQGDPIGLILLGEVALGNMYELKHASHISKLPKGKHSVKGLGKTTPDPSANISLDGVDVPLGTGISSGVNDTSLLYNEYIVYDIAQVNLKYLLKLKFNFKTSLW
# SFB-tagged PARP-1 DM (deletion of the auto-modification domain) (P09874, form named): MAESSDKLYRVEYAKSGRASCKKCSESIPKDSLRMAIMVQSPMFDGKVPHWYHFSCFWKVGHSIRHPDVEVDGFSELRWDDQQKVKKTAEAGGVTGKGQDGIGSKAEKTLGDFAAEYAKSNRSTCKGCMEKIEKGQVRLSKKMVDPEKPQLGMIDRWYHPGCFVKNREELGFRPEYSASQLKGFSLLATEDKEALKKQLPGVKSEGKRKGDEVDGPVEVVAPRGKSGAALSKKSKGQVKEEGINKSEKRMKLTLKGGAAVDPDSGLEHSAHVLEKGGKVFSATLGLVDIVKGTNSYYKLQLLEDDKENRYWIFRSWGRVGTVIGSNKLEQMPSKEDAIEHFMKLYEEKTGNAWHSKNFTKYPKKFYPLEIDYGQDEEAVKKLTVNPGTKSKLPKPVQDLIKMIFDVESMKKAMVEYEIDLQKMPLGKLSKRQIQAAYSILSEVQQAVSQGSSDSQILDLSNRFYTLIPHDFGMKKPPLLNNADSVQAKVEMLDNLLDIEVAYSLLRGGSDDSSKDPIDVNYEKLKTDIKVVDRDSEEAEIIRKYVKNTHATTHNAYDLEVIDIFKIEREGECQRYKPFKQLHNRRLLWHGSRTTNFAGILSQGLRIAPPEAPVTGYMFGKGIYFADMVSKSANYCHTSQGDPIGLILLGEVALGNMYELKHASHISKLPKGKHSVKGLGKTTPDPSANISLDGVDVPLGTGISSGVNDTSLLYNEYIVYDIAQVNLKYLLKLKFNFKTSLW
# Results are given in words; binding and its absence hold for the method and conditions named. In cells and extracts the contact can be indirect. Some results given as binding are weak or reduced against the parent protein; the word gives no strength. For some assays here: Where a sequence is shown, tags or fusion partners need not be part of it.
# T1: SFB-tagged UL76 (human cytomegalovirus (HCMV)) (UniProt P16725)
# T1 sequence: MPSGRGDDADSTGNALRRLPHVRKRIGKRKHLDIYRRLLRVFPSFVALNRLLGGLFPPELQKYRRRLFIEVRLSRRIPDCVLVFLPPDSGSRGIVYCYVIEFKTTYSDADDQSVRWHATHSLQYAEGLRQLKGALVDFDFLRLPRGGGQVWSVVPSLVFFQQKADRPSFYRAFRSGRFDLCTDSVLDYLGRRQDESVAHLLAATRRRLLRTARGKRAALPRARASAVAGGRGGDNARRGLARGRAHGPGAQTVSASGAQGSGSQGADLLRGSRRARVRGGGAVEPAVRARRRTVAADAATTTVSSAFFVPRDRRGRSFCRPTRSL
# B1: HCMV UL76 (virus-encoded, in HCMV-infected MRC-5 cells) (protein, UniProt P16725 1-325)
# chain: T1 sequence
# B2: myc-tagged UL76 (protein, UniProt P16725 1-325)
# chain: T1 sequence
# Experiments:
# Test in all cases: co-IP
# [1] = target: T1, SFB-tagged UL76 (human cytomegalovirus (HCMV))
# [2] = target: SFB-tagged UL76 C terminus (human cytomegalovirus (HCMV)) (UniProt P16725)
# [3] = target: Poly (ADP-ribose) polymerase 1 (PARP-1), endogenous in MRC-5 cells (human (endogenous in MRC-5)) (UniProt P09874)
# [4] = target: SFB-tagged PARP-1 full length (FL) (human) (UniProt P09874)
# [5] = target: SFB-tagged PARP-1 DM (deletion of the auto-modification domain) (human) (UniProt P09874)
# [6] = target: SFB-tagged PARP-1 auto-modification domain (M) (human) (UniProt P09874)
molecule,measurement,setting,value
"Poly (ADP-ribose) polymerase 1 (PARP-1), endogenous in HEK293T cells (from UniProt P09874 1-1014) (enzyme)",binding,[1],binds
same,binding,[2],binds
GFP-tagged PARP-1 DB (BRCT domain deletion mutant) (from UniProt P09874) (enzyme),binding,[1],no binding
GFP-tagged PARP-1 WT (from UniProt P09874 1-1014) (enzyme),binding,[1],binds
B1,binding,[3],binds
B2,binding,[4],binds
same,binding,[5],no binding
same,binding,[6],binds
